This passage reports self-cleavage results from the RNAGym collection of RNA variant scans (doi:10.1093/nar/gkz1192).

Sequences and labels used below:
B1: CPEB3 Ribozyme (parent)
chain: UAACAGGGGGCCACAGCAGAAGCGUUCACGUCGCAGCCCCUGUCAGAUUCUGGUGAAUCUGCGAAUUCUGCUGUAUAUCUC

Read counts are not given, so values of variants with three or more changes are uncertain.

The variants in this series derive from B1. The series can be described thus: self-cleavage, relative activity (ratio to wild type); higher = more cleavage; in vitro, sequencing. In a few lines:
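Barcoded CPEB3 ribozyme mutants, produced by rounds of error-prone PCR, self-cleaved while being transcribed with T7 RNA polymerase for 5 hours at 37°C and during a subsequent 15 min DNase I step before EDTA was added. Sequencing of template-switched cDNA on Illumina gave cleaved and total reads, and DNA sequencing assigned barcodes to variants. Each variant's relative activity is its cleaved/total read fraction divided by the unmutated ribozyme's fraction, averaged across three batches. A variant needed a minimum of 5 reads.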
Regarding C34A U49A U60C, the self-cleavage came out at 0.11. Then G33A A45G A47U, with 0.19; and C32U U41C U58C A65U U74C A77U, with 0.07. Then G33U U41C A77U, with 0.09. The value for A35G A45U U49A U51A was 0.62; that for C34U A45G G73A U76C was 0.81.

In the case of G33A U49C U72C, the self-cleavage is 0.05.

As for C34U U41C U67C, the self-cleavage worked out at 0.09. As to G33C C39A U48C U58A U74C, the self-cleavage amounted to 0.11. Then G33A U41A U69C U80C, with 0.14; and A35C A56U A57U, with 0.24. Regarding A35C G70A U78C, the self-cleavage amounted to 0.15.

As to C32U G36U A45C U48C U60C U76A, the self-cleavage was 0.06.

Consider G33A G46A A56G U69C, for which the self-cleavage was 0.2. The value for G33A U69C U72C was 0.15. For A35G G36C U48C U67C U80A, the self-cleavage turned out to be 0.07. Take A35G A56G U69C: the self-cleavage stood at 0.93.

Consider A35C A45U A56G, for which the self-cleavage stood at 0.14.

In the case of C32U U49C U66C U78A, the self-cleavage turned out to be 0.14. For C34A C40U U54C A75G, the self-cleavage turned out to be 0.04. For the variant G33A U49C U78C, the self-cleavage stood at 0.15. Turning to C32G A65U U80A, the self-cleavage is 0.13. The value for G33C U69A U78C was 0.23; that for G33C A47G A56G A64G U67C C81U was 0.31. The value for G33A U41A A56U U78A was 0.14; that for A35G C37U U48A was 1.25; that for G33A U67C U74A was 0.04. Then C34A U41A G46C A57G U58A U60C U69C, with 0.08. Take A35G A57G A64C U72A U74G: the self-cleavage is 0.96. Turning to G33U U67C U78C, the self-cleavage was determined as 0.13. The value for A35G U41A G52U A64G U67C U72G was 0.08; that for A35G A47G U51C A64G U74C U78C was 1.31; that for A35G G42A U43A U51C U58G was 0.07. In the case of G33A C38U U43A U51A U72C U80A, the self-cleavage stood at 0.08.

Regarding G33C U43A A47U U60C U74A, the self-cleavage turned out to be 0.1. Then C34U A35U A65G G73U, with 0.47.

As for G33A C39A G42A, the self-cleavage was found to be 0.4. In the case of G33C G52A C59A U72C, the self-cleavage was determined as 0.07. The value for C34A U41C U60A was 0.15; that for A35G A45G A64G U76C was 1.23; that for A35C U41A U51C U58C U74A was 0.14. Then G33A U41A C50U A56G, with 0.08; and A35G C37G U41A, with 0.15. Consider A35G A57G U60C U69C, for which the self-cleavage worked out at 0.48. Then A35G U41A A47G, with 0.31; and C32U U51A A57U C59A, with 0.17. Then A35G C40A U48C, with 0.43. The value for A35G A56G U76C was 1.08; that for A35G C39U A47G U66A A77G was 1. On to A35G C37G A47G, for which the self-cleavage stood at 0.53. As for C32U U49C U69C, the self-cleavage worked out at 0.17.

As to A35G G36A A56G U60C, the self-cleavage was 0.25.

Regarding C34G U49G A64G U66A, the self-cleavage was 0.04. Then C32U U41C U54C, with 0.21; and A35G A45G U74A, with 1.27. On to A35C C40U U51C, for which the self-cleavage was 0.49. Take G33U C62G U78C: the self-cleavage was 0.13.

On to A35G G36A A56G, for which the self-cleavage is 1.06.

As to C34A A57G U60C U72A, the self-cleavage was found to be 0.12.

On to G33A U43C U49C U66C U67C U80C, for which the self-cleavage worked out at 0.05. The value for A35G A64U A65G U69C was 0.56; that for A35G C39A U72C was 1.06. The value for A35G U41A U43C was 0.17; that for A35G A75G U78C was 1.31. The value for A35G U41A U49C U67C was 0.15. As to G33U A45G A57G U60A U66A, the self-cleavage was found to be 0.07.

Take C34U A47G A56G: the self-cleavage is 0.18. Then C32G C62G U69C, with 0.09. Then C34A U48C U54C A65G G73C, with 0.05; and C32U U41C U72C, with 0.09. With A35G G46U U66C U74A, the self-cleavage worked out at 0.19. For A35G A56U G61A, the self-cleavage is 0.29. Then G33U U54C U58C U72C, with 0.08; and A35C U41C U72C, with 1.04. The value for A35G A47G C62U U67C was 0.63; that for A35C U51C A56U U66C U78C was 0.09; that for G33A A35U A47G was 0.41. With C32U A45C U58C, the self-cleavage came to 0.11.

With G33A A35G U43C G55A, the self-cleavage stood at 0.05. For C32U A35G A56G, the self-cleavage was 0.14. Then G33C C34A C40U U54C A64G U72C, with 0.06; and C34U U67A U78C, with 0.14; and C34U U43C A45U U49C, with 0.09. For C34U G52A U74A U80C, the self-cleavage stood at 0.68.

G33C G36C U51A U67A: the self-cleavage amounted to 0.09. Then C32U A35G U41C U72C, with 0.11; and C32U U58C C62U U80C, with 0.13; and A35G U41A A56G, with 0.27.

For the variant A35G C37A A64G, the self-cleavage is 0.8. Take C32U U51A U58A U80C: the self-cleavage turned out to be 0.12. Consider C32U U51A U80C, for which the self-cleavage was found to be 0.65.

Regarding A35G A45G U69A, the self-cleavage amounted to 1.06. Then C34U U48C U60A, with 0.2.

Take G33C G53U U67C A75G: the self-cleavage was 0.09. Then G33A G61U U72A, with 0.12; and C34U A35G C44G, with 0.08.

As for A35G C71A U72G, the self-cleavage came to 0.32.

With A35G G36A U58C U67A U69C, the self-cleavage amounted to 0.1. The value for C34U U60C U67C U69A U76A was 0.13.

Turning to A35G C38A A57G A64G, the self-cleavage turned out to be 1.07. Then G33U A35U U51C U80A, with 0.09; and A35C U41C U60A U72C U76A, with 0.25; and A35G U41A A45C A57C, with 0.07. Then A35G C50U A65G, with 1.17; and G33U U67G U78C, with 0.13. The value for A35G A56G C79A was 1.26; that for A35G G36C A47G was 0.16. As to C32U U41C G55A A56U A57G, the self-cleavage was 0.08. Then C32U C37G C44A G63A, with 0.16; and G33A A35U U41A A57G A65G U78A, with 0.06; and A35G U41A U51A U74C, with 0.69. For G33U U51C C62U, the self-cleavage amounted to 0.25.

Consider A35G C39U A56G U60A, for which the self-cleavage was determined as 0.92. The value for A35G C38U A64U was 1.06; that for G33A U41A U49C was 0.16.

As to C32G U60A U72A, the self-cleavage came out at 0.12.

Consider A35C G36A A47G, for which the self-cleavage amounted to 0.18. As to A35G C50A U80C, the self-cleavage stood at 1.17. The value for C34U U41A U60C was 0.19; that for G33U A47U U49C was 0.17; that for G33A A56G U67C U69C was 0.16. Then C34U G61A U78C, with 0.07; and A35G A57G U58A C59U A64U U78C, with 0.46; and C34U U41C G42C U72A, with 0.17. As for A35C U72C U76A, the self-cleavage stood at 1.25. Then A35G G63C A64U U80G, with 0.87; and G33C G53U A75G, with 0.07.

Take C32G A57G A65G U66C U69C: the self-cleavage was found to be 0.04. As for G33A A45C A56U U78C, the self-cleavage came out at 0.12.

On to C34U U49C U72C, for which the self-cleavage was 0.12. Then G33A U54C A64G U67A, with 0.17; and C32U C44U U67C, with 0.13; and C32U U51C U54A U72C U80C, with 0.1. Then A35G G46A U74C, with 1.19; and C32U A35G U58C, with 0.14; and A35G C62G U74A, with 0.27. The value for G33A U49C U72A A75G was 0.07.

Turning to G33U U60C U67C U69G, the self-cleavage was determined as 0.19. The value for A35G A56U U60C U67C C71U was 0.38; that for A35C U54C A65G was 0.34; that for C32U A35U A56G C71U U72C was 0.33. For G33U U49C G53A U66C, the self-cleavage is 0.3. For the variant G33A U51C A57G A77G, the self-cleavage is 0.24. Then G33C G55U U66C A77G, with 0.11; and G33A U51A U58C U72C U80C, with 0.15. C34U U43A U67C U80C: the self-cleavage turned out to be 0.15. Then C34G U41C U60A, with 0.19; and G33A U58C G63A U80C, with 0.14; and G33A A64G A75U, with 0.13. The value for G33U A35G A45U A56G U76C was 0.1. Then A35C C71U U76C, with 0.59; and A35G A56G G61A, with 0.7. Turning to G33C U60G A75C A77G, the self-cleavage turned out to be 0.17. Then G33A A35U C62A A65G U72C U74A U80C, with 0.05; and A35G G52A U78A, with 1.28. For A35G U41A C62A, the self-cleavage came out at 0.09.

In the case of C34G A45U U58C U69C U74C, the self-cleavage amounted to 0.14. The value for G33U U60A U69C was 0.1; that for A35C C40U G63U U67G A75G was 0.3.

Take A35G C44A A57G: the self-cleavage stood at 0.72. The value for C34G C40U A47G was 0.18; that for A35C U60A U76C U80C was 0.47. The value for A35G C40U U41A C62U was 0.19; that for A35G A45U U60C A75G C79G was 1.25.

On to G33U A35U A65G, for which the self-cleavage was found to be 0.13. Then A35C U67A U80C, with 0.4. The value for G33A A35G U51A was 0.22.
